{"source": "the supplement of paper PMC11417369", "note": "± gives the standard deviation of the averaged measurements. Some of the results follow.", "data": [{"system": "PfAP2-G AP2 domain (GST-tagged)", "assay": "gcPBM binding intensity (ln(normalized median fluorescence intensity)); higher = stronger DNA binding", "summary_of_the_method": "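Binding intensity is the highest Masliner-normalised natural-log median intensity over replicate spots in either probe orientation. To obtain it, GST-tagged P. falciparum DNA-binding domains made in E. coli were incubated for 1 h on an Agilent 4 × 180k array of primer-extended double-stranded 36-bp intergenic genomic probes plus negative controls. Detection used Alexa488 anti-GST antibody with scanning at 488 nm.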", "values": [{"sequence": "ATAAATGAAAAAAAGCGTACATATAAAAAAATATAT [XGTACX_site5063]", "gcPBM binding intensity (ln)": "11.6 ± 1"}, {"sequence": "ATTTATAATCAGGGTTGTACACTTATAGAATTTTTA [XGTACX_site4175]", "gcPBM binding intensity (ln)": "11.3 ± 0.9"}, {"sequence": "TATATTTATACATATTGTACATTTTATACTTTTACA [XGTACX_site3884]", "gcPBM binding intensity (ln)": "10.8 ± 0.4"}, {"sequence": "CATAAGAAAATAAAAACATGCACATAAGAAATATAC [TGCATGCA_site842]", "gcPBM binding intensity (ln)": "10.12 ± 0.014"}, {"sequence": "AATCTTCATACCAACACATGCACAAAAGAAATAAAA [TGCATGCA_site563]", "gcPBM binding intensity (ln)": "10.3 ± 0.39"}, {"sequence": "ATATAAATATATGGAAGTACACAAAAAAATTAAAAA [XGTACX_site8624]", "gcPBM binding intensity (ln)": "11.6 ± 0.76"}, {"sequence": "TATTAAGAATTTACATGTACTTGTTAAATAAGAAAA [XGTACX_site4466]", "gcPBM binding intensity (ln)": "11.3 ± 0.73"}, {"sequence": "TTCTATATATTTTAATGTACATATATGATTATTCTT [XGTACX_site8294]", "gcPBM binding intensity (ln)": "11.2 ± 0.67"}, {"sequence": "ATATAGTATAATAAAAGTACATTTTGATTTTTTCTC [XGTACX_site1797]", "gcPBM binding intensity (ln)": "11.2 ± 0.79"}, {"sequence": "ATTATTAAAAAGATGTAAATAAATGAATATATGCTT [CACACA_negctrl_site539]", "gcPBM binding intensity (ln)": "9.81 ± 0.11"}, {"sequence": "GTCGCATTTTATACAAGTACACATGAATTATACAAC [XGTACX_site2200]", "gcPBM binding intensity (ln)": "11.4 ± 0.91"}, {"sequence": "TAAATAATATCTATCACACACGCATATATACATATA [CACACA_site2622]", "gcPBM binding intensity (ln)": "9.93 ± 0.12"}, {"sequence": "ACTCTTAAAATGTATTGTACATAATTTTTACAAGGG [XGTACX_site6611]", "gcPBM binding intensity (ln)": "11.2 ± 0.74"}, {"sequence": "AGGTAGTTCTGTATCACACACATATATATATATATA [CACACA_site2214]", "gcPBM binding intensity (ln)": "10.2 ± 0.17"}, {"sequence": "AACATTATAAGACACACACACACATATATATATATA [CACACA_site8259]", "gcPBM binding intensity (ln)": "10.2 ± 0.2"}, {"sequence": "GGAGAATAGTGGAAAACACACACGTTTGAGATATGG [CACACA_site1168]", "gcPBM binding intensity (ln)": "9.98 ± 0.15"}, {"sequence": "CAAAAACGGAAGTGGTGTACCGATATTATATAAACA [XGTACX_site4962]", "gcPBM binding intensity (ln)": "11.1 ± 0.61"}, {"sequence": "TTTTTTTTTTTTACCTGTACATGTCAGCAAACTTTT [XGTACX_site1171]", "gcPBM binding intensity (ln)": "11.1 ± 1"}, {"sequence": "TTTCCATTATGATATAGTACATAAATATATGTAATA [XGTACX_site6992]", "gcPBM binding intensity (ln)": "11.1 ± 0.7"}, {"sequence": "TTGTGTGTATGTATACATATATATATTGAGACGAAT [TGCATGCA_negctrl_site382]", "gcPBM binding intensity (ln)": "10.17 ± 0.099"}, {"sequence": "ACTATAAATATATAAATATATATATATATATATATA [GTGCAC_negctrl_site65]", "gcPBM binding intensity (ln)": "9.91 ± 0.59"}, {"sequence": "AAAAAAAATATATAAACACACATATTTATATACTCA [CACACA_site4984]", "gcPBM binding intensity (ln)": "9.665 ± 0.092"}, {"sequence": "ACATATAATAAAAAATGTACACACATAAGAAAATTT [XGTACX_site6153]", "gcPBM binding intensity (ln)": "11.2 ± 0.7"}, {"sequence": "TAATATCATTTATATTGTACTATAACAAAATCTATA [XGTACX_site7700]", "gcPBM binding intensity (ln)": "10.8 ± 0.59"}, {"sequence": "TAAATACACTGTAGCGCACACGGCCAAAAAAAAAAA [CACACA_site1818]", "gcPBM binding intensity (ln)": "10.6 ± 0.4"}, {"sequence": "TACTATCTATACAATACACACAAAAAAAAAAAAATA [CACACA_site3981]", "gcPBM binding intensity (ln)": "10 ± 0.52"}, {"sequence": "TTATTATCCTATATTTCTTTTCCTTCTTCAAAATTA [CACACA_negctrl_site1314]", "gcPBM binding intensity (ln)": "9.56 ± 0.028"}, {"sequence": "ATAAATAAGATACGTACACACATATACAAAATATAC [CACACA_site3661]", "gcPBM binding intensity (ln)": "11.5 ± 0.95"}, {"sequence": "TATGTCAATTTTCATACATGCGCATAATCTTTATTT [TGCATGCA_site807]", "gcPBM binding intensity (ln)": 9.94}, {"sequence": "AAAGTTTTTATACATACACACCTATAAATTAAGTGC [CACACA_site7198]", "gcPBM binding intensity (ln)": "9.88 ± 0.12"}, {"sequence": "GAAAGAATAAAATAAACATGCAAATAAAACATAAAA [TGCATGCA_site471]", "gcPBM binding intensity (ln)": "9.81 ± 0.2"}, {"sequence": "TATAAAACCCTACTGTTTCTTCTTTATTGATATATT [TGCATGCA_negctrl_site285]", "gcPBM binding intensity (ln)": "9.75 ± 0.13"}, {"sequence": "TCATAAAGAACAAAGTGTACCTATATATTACATACA [XGTACX_site7595]", "gcPBM binding intensity (ln)": "11 ± 0.58"}, {"sequence": "AATTGTAAATTGGGCACTTATAAAAATGAACAAATA [CACACA_negctrl_site1583]", "gcPBM binding intensity (ln)": "10.4 ± 0.25"}, {"sequence": "ATATTTCATCTAGCTACACACATATAATAAATTATT [CACACA_site4094]", "gcPBM binding intensity (ln)": "10.14 ± 0.035"}, {"sequence": "ATTAAAAGGGGGTTTACATGTGTGTGTGTAATATGG [TGCATGCA_negctrl_site293]", "gcPBM binding intensity (ln)": "10.5 ± 0.29"}, {"sequence": "TACAACAATTTTTGCACACACCAAAACATAAAATAA [CACACA_site4964]", "gcPBM binding intensity (ln)": "10.2 ± 0.28"}, {"sequence": "TTTTCAATATATAGAGCATGCGCATCCACAAATATG [TGCATGCA_site380]", "gcPBM binding intensity (ln)": "10.2 ± 0.092"}, {"sequence": "TGCCAATTTTTAAAAACATGCATTATATAGAATAAA [TGCATGCA_site872]", "gcPBM binding intensity (ln)": "9.885 ± 0.021"}, {"sequence": "AATGGAAAATTATTAACACACACATATAAATATATA [CACACA_site7899]", "gcPBM binding intensity (ln)": "9.935 ± 0.021"}, {"sequence": "TATATACCGATATATACACACAAATACATAAGCTTC [CACACA_site6760]", "gcPBM binding intensity (ln)": "10 ± 0.13"}, {"sequence": "TTATACATTTGTAAATAAATAGAACTGTATTTTTTT [TGCATGCA_negctrl_site397]", "gcPBM binding intensity (ln)": "9.72 ± 0.042"}, {"sequence": "CAAAATATTTTTATAACACACATATTTATAACGTGC [CACACA_site6659]", "gcPBM binding intensity (ln)": "9.925 ± 0.035"}, {"sequence": "TTTTGATTGTTATTCGTATATTATTTTATGATTATA [CACACA_negctrl_site1593]", "gcPBM binding intensity (ln)": "9.905 ± 0.064"}, {"sequence": "AATAATCATTTTCATAGTACGTATGATTAGAAAAAA [XGTACX_site2589]", "gcPBM binding intensity (ln)": "11 ± 0.66"}, {"sequence": "TATATATTATGACCACCACACACCTATACACATAAC [CACACA_site8773]", "gcPBM binding intensity (ln)": "11.3 ± 0.79"}, {"sequence": "TATTTCTGATTATTTTGTACACATTATATATAATGC [XGTACX_site6990]", "gcPBM binding intensity (ln)": "11.2 ± 0.83"}, {"sequence": "CTAAATATATAAAAAAGTACAAAATAAATAATAATT [XGTACX_site2442]", "gcPBM binding intensity (ln)": "11.2 ± 0.66"}, {"sequence": "GGATAGATAATAGGGGGTACAAATATACATACATAT [XGTACX_site5089]", "gcPBM binding intensity (ln)": "11.5 ± 0.91"}, {"sequence": "TTTTAATGAAAACACACACACACATATATATATATA [CACACA_site5295]", "gcPBM binding intensity (ln)": "10.3 ± 0.44"}, {"sequence": "GAAAATAGAAAAAGCACACATATATTTTGGAATGTA [CACACA_site551]", "gcPBM binding intensity (ln)": "9.81 ± 0.28"}, {"sequence": "AATATAAACAGACACACACACATATAGATTTATATT [CACACA_site7382]", "gcPBM binding intensity (ln)": "10.04 ± 0.057"}, {"sequence": "TAATAAGTACCTTTTGCATGTGGCACGCTTTTTTTT [TGCATGCA_site573]", "gcPBM binding intensity (ln)": "10.9 ± 0.41"}, {"sequence": "TATTATATAACAAAAAGTACTTATAAGAAATATATA [XGTACX_site5467]", "gcPBM binding intensity (ln)": "11.2 ± 0.79"}, {"sequence": "AAATGAATTATATAATATATATAAATAAATAAATAA [CACACA_negctrl_site359]", "gcPBM binding intensity (ln)": "9.565 ± 0.092"}, {"sequence": "AAATTTTTTAATTTTTCTCATTTAATTTAAAAATTA [GTGCAC_negctrl_site155]", "gcPBM binding intensity (ln)": "9.57 ± 0.21"}]}]}
